# Measured values published in the supplement of paper PMC6828730.
# This is one part of the list. Most values come without repeats; read them as rough.
# Tested on: hiPSC-derived cardiomyocytes
# Assay: time to death of most cells in well after compound addition (days); higher = less cardiotoxic; extreme values may be limits of the assay
# Conditions: screen: 3; 10 µM
row,SMILES,time to death of most cells in well
1,O=c1ncn2nc(Sc3ccc(F)cc3F)ccc2c1-c1c(Cl)cccc1Cl,3
2,C=CC(=O)Nc1cccc(Oc2nc(Nc3ccc(N4CCN(C)CC4)cc3OC)ncc2Cl)c1,3.5
3,COc1ccc(-c2ccc3c(N4CCOCC4)nc(N4C[C@@H](C)O[C@@H](C)C4)nc3n2)cc1CO,> 7
4,CCN1C(=CC(C)=O)Sc2ccc(OC)cc21,> 7
5,O=C(Cc1ccc(-c2ccc(OCCN3CCOCC3)cc2)cn1)NCc1ccccc1,> 7
6,Cc1cc(Nc2nc(N[C@@H](C)c3ccc(F)cc3)c(C#N)cc2F)n[nH]1,> 7
7,CC[C@@H]1C(=O)N(C)c2cnc(Nc3ccc(C(=O)N[C@H]4CC[C@H](N5CCN(CC6CC6)CC5)CC4)cc3OC)nc2N1C(C)C [Volasertib (BI 6727)],2
8,NC(=O)c1ccc(-c2nc(-c3ccc4c(c3)OCCO4)c(-c3ccccn3)[nH]2)cc1,> 7
9,O=C1NC(=O)C(=Cc2ccc(-c3ccc(F)cc3)o2)S1 (stereo in doubt),> 7
10,Cc1cc(Nc2nc(N[C@@H](C)c3ncc(F)cn3)ncc2Cl)[nH]n1,> 7
11,COc1ccc(-c2ccc3ncc4c(c3c2)n(-c2ccc(N3CCNCC3)c(C(F)(F)F)c2)c(=O)n4C)cn1,0.5
12,COc1cc2ncnc(Nc3cccc(Cl)c3F)c2cc1OC(=O)N1CCN(C)C[C@H]1C,> 7
13,COc1ccc(CNC(=O)Nc2ncc([N+](=O)[O-])s2)cc1,2.5
14,CC(C)(C)c1cc(C=C(C#N)C#N)cc(C(C)(C)C)c1O [Tyrphostin 9],0
15,CCn1c(N)c(C(=O)NC)c(=O)c2ccc(C#CC(C)(O)COC)nc21 (stereo not drawn),> 7
16,Cc1cn(-c2cc(NC(=O)c3ccc(C)c(Nc4nccc(-c5cccnc5)n4)c3)cc(C(F)(F)F)c2)cn1 [Nilotinib (AMN-107)],> 7
17,N#CC[C@H](C1CCCC1)n1cc(-c2ncnc3[nH]ccc23)cn1,> 7
18,COc1cc(N2CCC(N)CC2)ccc1Nc1ncc(Cl)c(-c2c[nH]c3ccccc23)n1,1.5
19,COc1c(C)c(C(=O)c2ccc(N)c(C(=O)O)c2)n2ccccc12,> 7

row,SMILES,time to death of most cells in well
1,CC(=O)Nc1cccc(-n2c(=O)n(C3CC3)c(=O)c3c(Nc4ccc(I)cc4F)n(C)c(=O)c(C)c32)c1,> 7
2,Cc1nc2c(-c3cnc(N)nc3)nc(N3CCOCC3)nc2n1C(C)C,> 7
3,O=C1c2ccccc2-c2n[nH]c3cccc1c23,> 7
4,"CC[C@H](Nc1ncnc2[nH]cnc12)c1nc2cccc(F)c2c(=O)n1-c1ccccc1 [Idelalisib (CAL-101, GS-1101)]",> 7
5,N#Cc1ccc2[nH]c(O)c(-c3ccc(CN4CCOCC4)cn3)c2c1,> 7
6,Cc1nc(N)sc1-c1ccnc(Nc2ccc(N3CCOCC3)cc2)n1,> 7
7,CNC(=O)c1c(F)cccc1Nc1nc(Nc2cc3c(cc2OC)CCN3C(=O)CN(C)C)nc2[nH]ccc12,2.5
8,COc1ccc2cc(-c3nc(-c4ccc([S+](C)[O-])cc4)[nH]c3-c3ccncc3)ccc2c1 (stereo not drawn) [Tie2 kinase inhibitor],> 7
9,O=C(O)CCC(=O)Nc1ccc(Br)cn1 [Bikinin],> 7
10,CCS(=O)(=O)Nc1ccc2[nH]c(O)c(C(=Nc3ccc(CN4CCCCC4)cc3)c3ccccc3)c2c1 [Hesperadin],> 7
11,COc1ccc2c(c1)/C(=C/c1cnc[nH]1)C(=O)N2,> 7
12,"Cc1[nH]c(/C=C2\C(=O)Nc3ccccc32)c(C)c1CCC(=O)O [Orantinib (TSU-68, SU6668)]",> 7
13,CS(=O)(=O)c1cccc(CNc2nc(Nc3ccc4c(c3)CCC(=O)N4)ncc2C(F)(F)F)c1,> 7
14,COc1ccc2c(Oc3ccc(NC(=O)c4c(C)n(CC(C)(C)O)n(-c5ccccc5)c4=O)nc3)ccnc2c1,> 7
15,CCN1CCN(Cc2ccc(Nc3ncc(F)c(-c4cc(F)c5nc(C)n(C(C)C)c5c4)n3)nc2)CC1,2.5
16,CCc1cncnc1N1CCN(Cc2nc3ccc(C(F)(F)F)cc3[nH]2)CC1,> 7
17,CN1CCC(CNc2ccc3ncc(-c4cccc(OC(F)(F)F)c4)n3n2)CC1 [SGI-1776 free base],0.5
18,NC(=O)c1cccc(-c2cc(Nc3ccc(OC(F)(F)F)cc3)ncn2)c1,> 7
19,O=c1[nH]c2ccc(Cl)cc2c(N[C@@H]2CN3CCC2CC3)c1-c1nc2ccccc2[nH]1,6.5
